PubChem BioAssay (NCATS)
Values joined by “and” are separate entries in the source; they are usually repeats but may differ in a detail not shown here. Equal values may be shown once. The shares of active, inactive and inconclusive entries below differ from those in the screen. Where the call is inconclusive, the potency comes from a doubtful curve fit. Active and inactive are the calls of the source. Calls follow the shape of the dose curve; as a rule, active = well fitted curve in the direction sought with a large enough effect; inconclusive = small, poorly fitted or top-dose-only effect, or another doubt; inactive = no such curve, though single readings can be large; an effect the other way counts as inactive or inconclusive.

Tests used:
[1] = qHTS of pediatric cancer cell lines to identify multiple opportunities for drug repurposing: Primary screen for NB-EBc1 cells (AID 1347095); conditions: NB-EBc1 neuroblastoma viability, CellTiter-Glo luminescence, 48 h; series mostly up to 46 µM
How it was run: (§1)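 Following a 5-hour attachment period, cells at 500-1,000/well received compounds and were cultured for 48 hours. CellTiter-Glo was added and luminescence read to estimate viable, metabolically active cells.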

[2] = qHTS of pediatric cancer cell lines to identify multiple opportunities for drug repurposing: Primary screen for SK-N-SH cells (AID 1347098); conditions: SK-N-SH viability, CellTiter-Glo luminescence, 48 h; activity change, negative = cytotoxic: at 57 µM (top of the series); also: nearly all actives have a fitted effect of over 65% in size;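 as to activity change, negative = cytotoxic: DMSO served as neutral control and bortezomib at 2.3 µM as positive control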
How it was run: (§2)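 Cells (500-1,000/well) rested 5 h, then received compounds for 48 h; metabolically active cells were measured by CellTiter-Glo luminescence. Final concentrations spanned up to 46 µM (MIPE, 11-point) or 0.59 nM-46 µM (NPC, 8-point) in primary screens, 11-point in follow-ups.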

[3] = qHTS of pediatric cancer cell lines to identify multiple opportunities for drug repurposing: Primary screen for NB1643 cells (AID 1347099); conditions: NB1643 neuroblastoma viability, CellTiter-Glo luminescence, 48 h; series mostly up to 46 µM; also: nearly all actives have a fitted effect of over 50% in size
How it was run: as §1

[4] = qHTS of pediatric cancer cell lines to identify multiple opportunities for drug repurposing: Primary screen for LAN-5 cells (AID 1347100); conditions: LAN-5 neuroblastoma viability, CellTiter-Glo luminescence, 48 h; activity change, negative = cytotoxic: at 46 µM (top of the series)
How it was run: (§3)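 Viability after 48 h compound treatment at 37C, 500-1,000 cells/well, read as ATP luminescence with CellTiter-Glo. Primary screens used 11-point (MIPE, 0.78 nM-46 µM) or 8-point (NPC, 0.59 nM-46 µM) final concentrations; follow-up screens used 11-point dilutions.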

[5] = qHTS of pediatric cancer cell lines to identify multiple opportunities for drug repurposing: Primary screen for BT-12 cells (AID 1347101); conditions: BT-12 viability, CellTiter-Glo luminescence, 48 h; series mostly up to 57.3 µM; also: nearly all actives have a fitted effect of over 25% in size
How it was run: as §2

[6] = qHTS of pediatric cancer cell lines to identify multiple opportunities for drug repurposing: Primary screen for RD cells (AID 1347104); conditions: RD rhabdomyosarcoma viability, CellTiter-Glo luminescence, 48 h; series mostly up to 46 µM; also: nearly all actives have a fitted effect of over 55% in size
How it was run: as §1

[7] = qHTS of pediatric cancer cell lines to identify multiple opportunities for drug repurposing: Primary screen for Saos-2 cells (AID 1347097); conditions: Saos-2 viability, CellTiter-Glo ATP luminescence, 48 h; activity change, negative = cytotoxic: at 46 µM (top of the series); also: nearly all actives have a fitted effect of over 40% in size
How it was run: as §1

[8] = qHTS of pediatric cancer cell lines to identify multiple opportunities for drug repurposing: Primary screen for Rh18 cells (AID 1347102); conditions: Rh18 rhabdomyosarcoma viability, CellTiter-Glo luminescence, 48 h; series mostly up to 46 µM; also: nearly all actives have a fitted effect of over 65% in size
How it was run: as §3

[9] = qHTS of pediatric cancer cell lines to identify multiple opportunities for drug repurposing: Primary screen for OHS-50 cells (AID 1347103); conditions: OHS-50 osteosarcoma viability, CellTiter-Glo luminescence, 48 h; series mostly up to 57.3 µM; also: nearly all actives have a fitted effect of over 40% in size
How it was run: as §2
Potency is read from the fitted curve at half-maximal effect; tags tell the direction and shape of the fitted curve.

| SMILES | Potency [1] | Potency [2] | Potency [3] | Potency [4] | Potency [5] | Potency [6] | Potency [7] | Potency [8] | Potency [9] |
| --- | --- | --- | --- | --- | --- | --- | --- | --- | --- |
| COc1cc([C@H]2Oc3cc([C@H]4Oc5cc(O)cc(O)c5C(=O)[C@H]4O)ccc3O[C@H]2CO)ccc1O | inconclusive: 13.2 µM [cytotoxic, partial curve] | inconclusive: 38.3 µM [cytotoxic, single point] | active: 23.5 µM | inconclusive: 20.9 µM [cytotoxic, single point] | inconclusive: 17.2 µM [cytotoxic, partial curve] | inconclusive: 18.7 µM [cytotoxic, partial curve] |  |  |  |
| CN(C)c1ccc(O)c2c1C[C@H]1C[C@H]3[C@H](N(C)C)C(=O)C(C(N)=O)=C(O)[C@@]3(O)C(=O)C1=C2O | inactive |  |  | inconclusive: 29.6 µM [cytotoxic, single point] and inconclusive: 33.5 µM [cytotoxic, single point] | inconclusive: 24.3 µM [cytotoxic, partial curve] and inconclusive: 27.6 µM [cytotoxic, single point] |  | inconclusive: 37.2 µM [cytotoxic, single point] | inconclusive: 33.2 µM [cytotoxic, single point] | inconclusive: 43.7 µM [cytotoxic, single point] |
| CC1(C)CCC(C)(C)c2cc(NC(=O)c3ccc(C(=O)O)cc3)ccc21 | inconclusive: 23.7 µM [cytotoxic, partial curve, poor fit] and inconclusive: 33.2 µM [cytotoxic, single point] |  |  |  | inactive | inconclusive: 29.6 µM [cytotoxic, partial curve, poor fit] | inconclusive: 168 nM [cytotoxic, full curve] and inconclusive: 469 nM [cytotoxic, full curve] |  | inconclusive: 87.1 nM [cytotoxic, full curve] and inconclusive: 24.3 nM [cytotoxic, full curve] |
| CCC[C@H](N[C@@H](C)C(=O)N1[C@@H]2CCCC[C@H]2C[C@H]1C(=O)O)C(=O)OCC | inconclusive: 16.6 µM [cytotoxic, partial curve] | inconclusive: 42.9 µM [cytotoxic, single point] |  |  | inconclusive: 21.7 µM [cytotoxic, partial curve] |  | inconclusive: 16.6 µM [cytotoxic, partial curve] | inconclusive: 16.6 µM [cytotoxic, partial curve, poor fit] | inconclusive: 21.7 µM [cytotoxic, partial curve] |
| CO[C@H]1C[C@@H]2CC[C@@H](C)[C@@](O)(O2)C(=O)C(=O)N2CCCC[C@@H]2C(=O)O[C@H]([C@H](C)C[C@@H]2CC[C@H](OP(C)(C)=O)[C@H](OC)C2)CC(=O)[C@H](C)C=C(C)[C@@H](O)[C@@H](OC)C(=O)[C@H](C)C[C@H](C)C=CC=CC=C1C | inconclusive: 29.6 µM [cytotoxic, single point] |  |  | inconclusive: 23.5 µM [cytotoxic, single point] |  |  | inconclusive: 1.18 µM [cytotoxic, full curve, poor fit] |  | inconclusive: 38.5 µM [cytotoxic, single point] |
| Cc1c(C)n(Cc2ccc(-c3ccccc3C(=O)O)cc2)c2ccc(C(=O)N[C@@H](C)c3ccc([N+](=O)[O-])cc3)cc12 | inconclusive: 0.166 µM [cytotoxic, full curve] |  |  | inconclusive: 0.372 µM [cytotoxic, full curve] | active: 0.769 µM | active: 1.66 µM | inconclusive: 0.0372 µM [cytotoxic, full curve] |  |  |
| COc1cc(N2CCC(N3CCN(C)CC3)CC2)ccc1Nc1ncnc(Nc2ccccc2S(=O)(=O)C(C)C)n1 | inconclusive: 7.43 µM [cytotoxic, full curve, poor fit] | active: 27.1 µM | inconclusive: 20.9 µM [cytotoxic, partial curve, poor fit] | inconclusive: 3.72 µM [cytotoxic, full curve, poor fit] | inconclusive: 30.6 µM [cytotoxic, single point] |  |  | inconclusive: 14.8 µM [cytotoxic, partial curve, poor fit] | inconclusive: 7.69 µM [cytotoxic, full curve, poor fit] |
| O=C(O)CSCC(=O)NC1CCSC1=O (stereo unspecified) | inactive | inconclusive: 0.0386 µM [cytotoxic, full curve, poor fit] |  |  |  |  |  |  |  |
| CCOC(=O)C1=C(N)Oc2ccc(Br)cc2C1C(C#N)C(=O)OCC (stereo unspecified) | active: 6.62 µM |  |  |  |  |  | inconclusive: 5.9 µM [cytotoxic, partial curve] |  | inactive |
| COc1ccc2cc(-c3nc(-c4ccc(S(C)=O)cc4)[nH]c3-c3ccncc3)ccc2c1 (stereo unspecified) | inconclusive: 37.2 µM [cytotoxic, single point] | inconclusive: 27.1 µM [cytotoxic, single point] | inconclusive: 37.2 µM [cytotoxic, single point] | inconclusive: 33.2 µM [cytotoxic, single point] | inconclusive: 43.2 µM [cytotoxic, single point] |  |  |  |  |
| O=c1c(O)c(-c2cc(O)c(O)c(O)c2)oc2cc(O)cc(O)c12 | inactive |  |  |  | inactive |  | inconclusive: 16.6 µM [cytotoxic, partial curve] |  | inconclusive: 9.68 µM [cytotoxic, partial curve, poor fit] |
| O=C(OC1C[C@H]2CC[C@@H](C1)[N+]21CCCC1)C(O)(c1ccccc1)c1ccccc1 (stereo partly specified) | inactive | inconclusive: 13.6 µM [cytotoxic, full curve] |  |  |  |  | inactive |  | inactive |
| CC(C)(C)NC(=O)Nc1cccc(Nc2ncc(F)c(NC(C)(C)CO)n2)c1 | inconclusive: 3.72 µM [cytotoxic, full curve] | inconclusive: 17.1 µM [cytotoxic, partial curve] | inconclusive: 1.32 µM [cytotoxic, partial curve, poor fit] | inconclusive: 1.66 µM [cytotoxic, full curve] | inconclusive: 24.3 µM [cytotoxic, partial curve] |  |  |  | inactive |
| CC(C)C1CCC(C(=O)N[C@H](Cc2ccccc2)C(=O)O)CC1 (stereo partly specified) | inactive | inactive |  |  |  |  |  |  |  |
| O=c1[nH]c(=O)n([C@H]2C[C@@H](O)[C@@H](CO)O2)cc1I | inactive |  |  |  | inconclusive: 21.7 µM [cytotoxic, partial curve, poor fit] |  | inactive |  |  |
| CN(C)c1ccc(C2Nc3ccc4ccccc4c3C3=C2C(=O)CC(C)(C)C3)cc1Br (stereo unspecified) | inactive |  |  | inactive |  | inconclusive: 11.8 µM [cytotoxic, partial curve] | inconclusive: 13.2 µM [cytotoxic, partial curve] |  | inconclusive: 6.85 µM [cytotoxic, full curve] |
| CN1[C@H]2CC[C@H]1CC(OC(=O)c1c[nH]c3ccccc13)C2 (stereo partly specified) | inactive |  | active: 23.5 µM | inactive |  |  | inconclusive: 14.8 µM [cytotoxic, partial curve] | inconclusive: 18.7 µM [cytotoxic, partial curve] | inconclusive: 43.2 µM [cytotoxic, single point] |
| Cc1nc(Nc2ncc(C(=O)Nc3c(C)cccc3Cl)s2)cc(N2CCN(CCO)CC2)n1 | inconclusive: 33.2 µM [cytotoxic, partial curve, poor fit] | inconclusive: 30.4 µM [cytotoxic, partial curve] and inconclusive: 19.4 µM [cytotoxic, partial curve, poor fit] |  |  | inconclusive: 27.3 µM [cytotoxic, single point] and inconclusive: 21.9 µM [cytotoxic, single point] | inconclusive: 5.9 nM [cytotoxic, full curve, poor fit] and inconclusive: 150 nM [cytotoxic, full curve, poor fit] | inconclusive: 14.8 µM [cytotoxic, partial curve] and inconclusive: 84.1 nM [cytotoxic, single point] | inconclusive: 4.7 nM [cytotoxic, full curve, poor fit] and active: 33.5 nM | active: 24.3 µM and active: 12.3 µM |
| O=C1c2ccccc2-c2n[nH]c3cccc1c23 | active: 1.05 µM |  |  |  | inconclusive: 6.85 µM [cytotoxic, partial curve] | inconclusive: 37.2 µM [cytotoxic, single point] | inconclusive: 1.48 µM [cytotoxic, partial curve, poor fit] | inconclusive: 18.7 µM [cytotoxic, single point] |  |
